# In the supplement of paper PMC8728848:
# The other results are listed elsewhere or left out.
# Columns and labels:
# Experiment in all cases: glycan array binding signal (z-score within array); higher = stronger binding
# Details in all cases: glycan notation: IUPAC condensed, linker removed
# [1] = molecular target: GlcNAc(b1-3)Gal(b1-4)GlcNAc(b1-3)Gal(b1-4)GlcNAc(b1-3)Gal(b1-4)GlcNAc(b1-3)Gal(b1-4)GlcNAc(b1-2)[GlcNAc(b1-3)Gal(b1-4)GlcNAc(b1-3)Gal(b1-4)GlcNAc(b1-3)Gal(b1-4)GlcNAc(b1-3)Gal(b1-4)GlcNAc(b1-6)]Man(a1-6)[GlcNAc(b1-3)Gal(b1-4)GlcNAc(b1-3)Gal(b1-4)GlcNAc(b1-3)Gal(b1-4)GlcNAc(b1-3)Gal(b1-4)GlcNAc(b1-2)Man(a1-3)]Man(b1-4)GlcNAc(b1-4)[Fuc(a1-6)]GlcNAc
# In short: (§1)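 Glycan array data were curated from 3228 arrays in the Consortium for Functional Glycomics database and kept only where the protein sequence was available. Glycan names were converted to IUPAC-condensed notation, and columns mapping to the same glycan were averaged. The binding signal is a within-array Z-score, averaged across arrays of the same protein sequence at different concentrations or buffers and across linkers. Negative Z-scores can be read as non-binding.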
# [2] = molecular target: GlcNAc(b1-3)Gal(b1-4)GlcNAc(b1-3)Gal(b1-4)GlcNAc(b1-3)GalNAc
# In short: as §1
# [3] = molecular target: GlcNAc(b1-3)Gal(b1-4)GlcNAc(b1-3)GalNAc
# In short: as §1
# [4] = molecular target: GlcNAc(b1-3)Gal(b1-4)GlcNAc(b1-3)[GlcNAc(b1-3)Gal(b1-4)GlcNAc(b1-3)]GalNAc
# In short: as §1
# [5] = molecular target: GlcNAc(b1-3)Gal(b1-4)GlcNAc(b1-6)[Gal(b1-3)]GalNAc
# In short: as §1
# [6] = molecular target: GlcNAc(b1-3)Gal(b1-4)GlcNAc(b1-6)[GlcNAc(b1-3)Gal(b1-3)]GalNAc
# In short: as §1
# [7] = molecular target: GlcNAc(b1-3)Gal(b1-4)GlcNAc(b1-6)[GlcNAc(b1-3)]Gal(b1-4)GlcNAc
# In short: as §1
# [8] = molecular target: GlcNAc(b1-3)GalNAc
# In short: as §1
# [9] = molecular target: GlcNAc(b1-3)Man
# In short: as §1
# [10] = molecular target: GlcNAc(b1-3)[GlcNAc(b1-4)][GlcNAc(b1-6)]GlcNAc
# In short: as §1
# [11] = molecular target: GlcNAc(b1-3)[GlcNAc(b1-6)]Gal(b1-4)GlcNAc
# In short: as §1
# [12] = molecular target: GlcNAc(b1-3)[GlcNAc(b1-6)]GalNAc
# In short: as §1
# [13] = molecular target: GlcNAc(b1-4)Gal(b1-4)GlcNAc
# In short: as §1
# [14] = molecular target: GlcNAc(b1-4)GlcNAc
# In short: as §1
# [15] = molecular target: GlcNAc(b1-4)GlcNAc(b1-4)GlcNAc
# In short: as §1
# [16] = molecular target: GlcNAc(b1-4)GlcNAc(b1-4)GlcNAc(b1-4)GlcNAc(b1-4)GlcNAc
# In short: as §1
# [17] = molecular target: GlcNAc(b1-4)GlcNAc(b1-4)GlcNAc(b1-4)GlcNAc(b1-4)GlcNAc(b1-4)GlcNAc
# In short: as §1
# [18] = molecular target: GlcNAc(b1-4)[GlcNAc(b1-6)]GalNAc
# In short: as §1
# [19] = molecular target: GlcNAc(b1-6)Gal(b1-4)GlcNAc
# In short: as §1
# [20] = molecular target: GlcNAc(b1-6)GalNAc
# In short: as §1
# [21] = molecular target: GlcNAc6S(b1-3)Gal(b1-4)GlcNAc
# In short: as §1
# [22] = molecular target: Kdn(a2-3)Gal(b1-3)GalNAc
# In short: as §1
# [23] = molecular target: Kdn(a2-3)Gal(b1-3)GlcNAc
# In short: as §1
# [24] = molecular target: Kdn(a2-3)Gal(b1-4)Glc
# In short: as §1
# [25] = molecular target: Kdn(a2-3)Gal(b1-4)GlcNAc
# In short: as §1
# [26] = molecular target: Kdn(a2-3)Gal(b1-4)[Fuc(a1-3)]GlcNAc
# In short: as §1
# [27] = molecular target: Kdn(a2-6)Gal(b1-4)GlcNAc
# In short: as §1
# [28] = molecular target: Man(a1-2)Man(a1-2)Man(a1-3)Man
# In short: as §1
# [29] = molecular target: Man(a1-2)Man(a1-2)Man(a1-6)[Man(a1-3)]Man
# In short: as §1
# [30] = molecular target: Man(a1-2)Man(a1-3)Man
# In short: as §1
# [31] = molecular target: Man(a1-2)Man(a1-3)[Man(a1-2)Man(a1-6)]Man
# In short: as §1
# [32] = molecular target: Man(a1-2)Man(a1-3)[Man(a1-2)Man(a1-6)]Man(a1-6)[Man(a1-2)Man(a1-2)Man(a1-3)]Man
# In short: as §1
# [33] = molecular target: Man(a1-2)Man(a1-3)[Man(a1-2)Man(a1-6)]Man(a1-6)[Man(a1-2)Man(a1-2)Man(a1-3)]Man(b1-4)GlcNAc(b1-4)GlcNAc
# In short: as §1
# [34] = molecular target: Man(a1-2)Man(a1-3)[Man(a1-6)]Man(a1-6)[Man(a1-2)Man(a1-3)]Man(b1-4)GlcNAc(b1-4)GlcNAc
# In short: as §1
# [35] = molecular target: Man(a1-2)Man(a1-6)[Man(a1-3)]Man(a1-6)[Man(a1-2)Man(a1-2)Man(a1-3)]Man
# In short: as §1
# [36] = molecular target: Man(a1-2)Man(a1-6)[Man(a1-3)]Man(a1-6)[Man(a1-2)Man(a1-2)Man(a1-3)]Man(b1-4)GlcNAc(b1-4)GlcNAc
# In short: as §1
# [37] = molecular target: Man(a1-3)[Man(a1-6)]Man
# In short: as §1
# [38] = molecular target: Man(a1-3)[Man(a1-6)]Man(a1-6)[Man(a1-2)Man(a1-3)]Man(b1-4)GlcNAc(b1-4)GlcNAc
# In short: as §1
# [39] = molecular target: Man(a1-3)[Man(a1-6)]Man(a1-6)[Man(a1-3)]Man
# In short: as §1
# [40] = molecular target: Man(a1-3)[Man(a1-6)]Man(a1-6)[Man(a1-3)]Man(b1-4)GlcNAc(b1-4)GlcNAc
# In short: as §1
# [41] = molecular target: Man(a1-3)[Man(a1-6)]Man(b1-4)GlcNAc(b1-4)GlcNAc
# In short: as §1
# [42] = molecular target: Man(a1-3)[Man(a1-6)]Man(b1-4)GlcNAc(b1-4)[Fuc(a1-6)]GlcNAc
# In short: as §1
# [43] = molecular target: Man(a1-6)Man
# In short: as §1
# [44] = molecular target: Man(b1-4)GlcNAc
# In short: as §1
# [45] = molecular target: MurNAc(b1-4)GlcNAc
# In short: as §1
binder,measurement,setting,value
"HA-11100 (Pseudomonas aeruginosa), Q02G51_PSEAB (protein) QFNPNEIKISQQGKTTLIDQSTQRAIINWKGFDVSADEAVRFNQPGVTSSTLNRVTAGQESVIAGRISAPGQVIIYNSNGVVFSGSAKVDVGSLITTTANISDEHFRQGKLIFDQPGNPDARIVNDGSISVAEKGLAAFVAPSVANNGVINARLGTVAMAAGNAATIDLYG",glycan array binding signal (z-score),[1],-0.474
same,glycan array binding signal (z-score),[2],-0.437
same,glycan array binding signal (z-score),[3],-0.068
same,glycan array binding signal (z-score),[4],-0.292
same,glycan array binding signal (z-score),[5],-0.237
same,glycan array binding signal (z-score),[6],-0.263
same,glycan array binding signal (z-score),[7],-0.521
same,glycan array binding signal (z-score),[8],-0.06
same,glycan array binding signal (z-score),[9],-0.231
same,glycan array binding signal (z-score),[10],-0.017
same,glycan array binding signal (z-score),[11],-0.045
same,glycan array binding signal (z-score),[12],-0.244
same,glycan array binding signal (z-score),[13],-0.214
same,glycan array binding signal (z-score),[14],-0.246
same,glycan array binding signal (z-score),[15],-0.303
same,glycan array binding signal (z-score),[16],-0.054
same,glycan array binding signal (z-score),[17],-0.245
same,glycan array binding signal (z-score),[18],-0.21
same,glycan array binding signal (z-score),[19],-0.123
same,glycan array binding signal (z-score),[20],-0.254
same,glycan array binding signal (z-score),[21],-0.314
same,glycan array binding signal (z-score),[22],-0.346
same,glycan array binding signal (z-score),[23],0.013
same,glycan array binding signal (z-score),[24],-0.48
same,glycan array binding signal (z-score),[25],-0.116
same,glycan array binding signal (z-score),[26],2.16
same,glycan array binding signal (z-score),[27],-0.238
same,glycan array binding signal (z-score),[28],-0.318
same,glycan array binding signal (z-score),[29],-0.538
same,glycan array binding signal (z-score),[30],-0.036
same,glycan array binding signal (z-score),[31],-0.474
same,glycan array binding signal (z-score),[32],-0.253
same,glycan array binding signal (z-score),[33],-0.026
same,glycan array binding signal (z-score),[34],-0.194
same,glycan array binding signal (z-score),[35],-0.18
same,glycan array binding signal (z-score),[36],-0.45
same,glycan array binding signal (z-score),[37],-0.417
same,glycan array binding signal (z-score),[38],3.21
same,glycan array binding signal (z-score),[39],-0.327
same,glycan array binding signal (z-score),[40],-0.474
same,glycan array binding signal (z-score),[41],-0.349
same,glycan array binding signal (z-score),[42],-0.079
same,glycan array binding signal (z-score),[43],-0.622
same,glycan array binding signal (z-score),[44],-0.549
same,glycan array binding signal (z-score),[45],0.053
